Data reported in PubChem BioAssay AID1159614 (National Center for Advancing Translational Sciences (NCATS), 2016).
The whole screen tested about 45,000 compounds, of which about 65 (0.1%) were called active. Calls come from the whole dose curve; as a rule, active = well fitted activation curve with a large enough effect; inconclusive = small, poorly fitted or top-dose-only effect; inactive = no such curve, though single readings can be large or run the other way. Some of the results follow.

Molecular target: Galactocerebrosidase (Homo sapiens) (UniProt P54803)
Assay: A Novel Cell-Based Assay to Identify Small Molecules for B -Galactocerebrosidase; note: 0% is about no effect; nearly all actives have a fitted effect of over 65% in size
Conditions: 145M-Twi-hGALC-G270D cells (Twitcher mouse brain line with human GALC G270D), HMU-beta-Gal fluorescence, 48 h; series mostly up to 57.5 µM; activation: at the top concentration
How it was run: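 Live 145M-Twi cells (Twitcher mouse brain-derived, GALC-null) stably expressing human GALC-G270D, with a wild-type GALC line, were compound-treated. Residual GALC activity was then read as fluorescence from 0.1 mM final HMU-β-gal at pH 5.2; higher signal means activation.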

Chain of UniProt P54803 (P54803 whole entry, looked up): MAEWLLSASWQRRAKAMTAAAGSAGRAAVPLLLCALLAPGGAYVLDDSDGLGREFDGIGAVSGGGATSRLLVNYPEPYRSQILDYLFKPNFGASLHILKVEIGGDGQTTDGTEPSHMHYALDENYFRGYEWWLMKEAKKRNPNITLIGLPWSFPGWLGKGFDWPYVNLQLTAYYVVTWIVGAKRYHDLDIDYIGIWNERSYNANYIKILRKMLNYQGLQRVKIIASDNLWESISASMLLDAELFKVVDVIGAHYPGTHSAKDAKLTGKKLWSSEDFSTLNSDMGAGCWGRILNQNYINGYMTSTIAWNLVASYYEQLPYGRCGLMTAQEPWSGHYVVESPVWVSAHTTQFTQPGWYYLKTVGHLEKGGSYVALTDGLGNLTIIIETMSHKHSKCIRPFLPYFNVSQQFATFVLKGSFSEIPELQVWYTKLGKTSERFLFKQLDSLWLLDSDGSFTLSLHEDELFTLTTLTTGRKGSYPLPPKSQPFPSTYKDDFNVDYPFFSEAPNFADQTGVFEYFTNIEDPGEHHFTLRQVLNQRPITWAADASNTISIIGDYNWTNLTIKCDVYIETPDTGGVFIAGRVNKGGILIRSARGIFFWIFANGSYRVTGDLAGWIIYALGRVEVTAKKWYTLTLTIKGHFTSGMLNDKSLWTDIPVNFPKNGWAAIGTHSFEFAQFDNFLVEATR

activation, inactive:
Cc1ccc(S(=O)(=O)c2nc(-c3ccccc3)oc2SCC(=O)NC2CCCCC2)cc1 -4.15%
O=C(Cn1c(=O)ccc2cc(S(=O)(=O)N3CCCC3)ccc21)NCc1ccc(F)cc1 -22.5%
COc1ccc(N(CC(=O)N2CCN(c3cccc(OC)c3)CC2)S(=O)(=O)c2c(C)noc2C)cc1 -6.82%
CCOC(=O)C1=C(CS(=O)(=O)c2ccc(C)c(C)c2)NC(=O)NC1c1ccccc1OCC (stereo not given) -5.03%
CCOc1ccc(NC(=O)Cn2c(=O)n(Cc3nc(-c4ccccc4)no3)c(=O)c3ccccc32)cc1 -9.77%
CN1C(=O)c2ccccc2Sc2ccc(NC(=O)COc3ccc(Cl)cc3)cc21 -4.81%
COCCNc1ccc(-c2nc(-c3cccc(C)c3)no2)cc1[N+](=O)[O-] -17.4%
CN1C(C)(C)CCCC1(C)C -1.46%
Cn1c(-n2cccc2)c(-c2c(-c3ccc(F)cc3)[nH]c3c2c(=O)[nH]c(=O)n3C)c(=O)[nH]c1=O 6.43%
CC1CCCN(C(=O)Cn2c(=O)n(CC3CCC(C(=O)NC(C)C)CC3)c(=O)c3sccc32)C1 (stereo not given) -20.4%
COc1cc(OC)c(NC(=O)c2ccc3c(Cl)c4c(nc3c2)CCCC4)cc1Cl -7.54%
COc1ccc(CCNC(=O)CSCc2nc(-c3ccc(OC)c(OC)c3)oc2C)cc1OC -17.7%
COc1cccc(OC)c1Cn1nnc2c(=O)[nH]c(C3CCN(C(=O)c4ccccc4)CC3)nc21 -11%
COc1ccc(-n2ncc3c2ncn2nc(-c4ccc(Cl)cc4Cl)nc32)cc1 -17.7%
Cc1ccc(NC(=O)c2ccc(F)c(S(=O)(=O)N3CCc4ccccc4C3)c2)cc1F -19.4%
Cc1ccc(-n2c(SCC(=O)N3CCC(C)CC3)nc3c([nH]c4ccccc43)c2=O)cc1 -11.2%
COc1cccc(-c2ccnc3[nH]n(-c4ccccc4)c(=O)c23)c1 2.48%
COc1ccc(Cl)cc1NC(=O)CSc1cn(CC(=O)N2CCCC2)c2ccccc12 -9.72%
Cc1cc(NC(=O)CN2C(=O)CSc3ccc(S(=O)(=O)N(C)C)cc32)ccc1Br -16.2%
CSc1ccc(CCNC(=O)c2ccc3c(c2)nc2n3CCOC2)cc1 1.96%
CC1(C)Oc2ccc(C#N)cc2[C@@H](N2CCCC2=O)[C@@H]1O -8.55%
CCOC(=O)c1c(NC(=O)c2nc(SC)ncc2Cl)sc(C)c1C -19.2%
CCOC(=O)c1ccc(NC(=O)CN2C(=O)CC(c3ccc(C)c(C)c3)=Nc3ccccc32)cc1 -20.5%
Cc1c(Cl)cccc1NC(=O)NCCOCCn1c(=O)oc2ccccc21 -3.5%
CCOc1ccc(CCNC(=O)c2ccc3c(c2)N(Cc2cccc(Cl)c2)C(=O)c2ccccc2S3(=O)=O)cc1OCC -7.62%
CCOC(=O)c1scc(-c2ccc(C)cc2)c1S(=O)(=O)Nc1ccc(F)c(F)c1 -1.78%
Cn1c(=O)n(CCCc2ccccc2)c(=O)c2c1nc1n2CCN1c1ccccc1 8.85%
CCN(Cc1ccccc1)C(=O)CCS(=O)(=O)c1ccc2c(c1)oc(=O)n2C -12%
COc1ccc2c(c1)c(=O)c(C(=O)c1ccc(Cl)cc1)cn2CC(=O)Nc1ccc2c(c1)OCO2 -12.4%
CCc1ccc(N2C(=O)CS(=O)(=O)C23C(=O)N(Cc2ccccc2F)c2ccccc23)cc1 (stereo not given) -23%
Cc1sc(NC(=O)COc2ccc(C(C)(C)C)cc2)c(C(=O)OC(C)C)c1C -1.17%
CCOc1cc(C2c3c(oc4ccccc4c3=O)C(=O)N2Cc2ccccc2Cl)ccc1O (stereo not given) -15.6%
Cc1cc(-c2nc3ccccc3s2)ccc1NC(=O)c1cc(Cl)ccc1Cl 7.33%
Cc1ccc(-c2noc(C3CC(=O)N(c4ccc5c(c4)OCCO5)C3)n2)cc1 (stereo not given) -15.8%
COc1ccc(CNC(=O)C2CCN(S(=O)(=O)c3cn(C)cn3)CC2)cc1 -11.9%
COc1ccc(NC(=O)N(Cc2ccco2)C2CCN(C(C)=O)CC2)c(OC)c1 0.198%
COc1cc(-c2noc(-c3cc(C)[nH]n3)n2)cc(OC)c1OC -16.6%
COc1cccc(NC(=O)C2CCN(S(=O)(=O)c3cc(-c4noc(C)n4)ccc3C)CC2)c1 -8.22%
CCN1CCN(C(=O)c2cnn(-c3cccc(C)c3)c2C2CCN(C(=O)OC(C)(C)C)CC2)CC1 1.54%
COc1cccc(CNC(=O)c2cccn2-c2nnc(N3CCCC3)s2)c1 -18.7%
Cc1onc(-c2c(Cl)cccc2Cl)c1C(=O)N[C@@H]1C(=O)N2[C@@H]1SC(C)(C)[C@@H]2C(=O)O -20.4%
CCOc1ccc(NC(=O)c2cn3c4c(ccc(Cl)c4c2=O)OC(C)C3)cc1 (stereo not given) -19.1%
COc1ccc(C2CC(=O)c3c([nH]c(C(=O)OCCOc4ccccc4)c3C)C2)cc1OC (stereo not given) -12.9%
CCn1cc(C(=O)N2CCN(c3ccccc3)CC2)c(=O)c2cc(S(=O)(=O)N3CCC(C)CC3)ccc21 -11.4%
COc1ccccc1CNC(=O)c1cc(-c2ccccc2)n[nH]1 -8.01%
O=C(CCS(=O)(=O)c1nc(-c2cccs2)cc(C(F)(F)F)n1)Nc1cccc(O)c1 -12.6%
Cn1c2ccc(F)cc2c2nnc(SCCN3CCCCC3)nc21 8.94%
CCOc1ccccc1N(CC)C(=O)c1cc2ccc3cccnc3c2[nH]1 -8.67%
CC(C)NC(=O)c1sc2ncccc2c1-n1cccc1 -20.1%
CCOc1ccccc1NC(=O)CN1C(=O)C(=O)c2ccccc21 -16.9%
Cc1ccc2nc(NC(=O)CSc3ncc(C(=O)Nc4ccccc4)c(=O)n3C)sc2c1 -13.8%
Cc1ccc(N2C(=O)C(CC(=O)Nc3ccccc3)N(CCC3=CCCCC3)C2=O)cc1 (stereo not given) -35.3%
O=C(NCCCN1CCN(c2cccc(Cl)c2)CC1)c1nnc(Cc2ccc(F)cc2Cl)o1 -5.78%
CCc1ccc(S(=O)(=O)c2cnc(SCC(=O)Nc3ccc(OC)cc3OC)[nH]c2=O)cc1 -10.2%
Cc1sc2c(c1C)c(=O)n(Cc1ccccc1)c(=O)n2CC(=O)Nc1cccc(Cl)c1 -30.8%
O=C(O)Cn1nc(N2CCN(c3ccccc3)CC2)ccc1=O -8.67%
CCOc1ccc(CCNC(=O)c2sc3nc4n(c(=O)c3c2C)CCCC4)cc1 -14.9%
Cc1nn2c(=O)cc(COC(=O)COc3ccccc3C)nc2s1 -9.56%
O=C(O)C1=CC(c2ccc(Br)cc2)n2ncnc2N1 (stereo not given) 24.2%
CCOC(=O)Cn1cnc2c(cnn2-c2ccc(C)c(C)c2)c1=O -3.49%
COc1ccc(NC(=O)c2nc(S(=O)(=O)Cc3ccc(C)cc3)ncc2Cl)cc1 -17.1%
CC1CCC(NC(=O)CCc2cn(Cc3ccc(F)cc3)c3ccccc23)CC1 (stereo not given) -0.875%
Cc1ccccc1C(=O)NCc1ccc2c(c1)CCN2C(=O)c1ccc(F)cc1 -13.9%
COc1cc2c(cc1OC)C(COc1ccc(C(C)C)cc1)N(C(=O)COc1ccccc1)CC2 (stereo not given) -19.1%
COc1ccccc1NC(=O)C1CCN(c2ncnc3c2nc2n3CCCCC2)CC1 -10.9%
COc1ccc(N2CC(NC(=O)c3ccc(S(=O)(=O)N4CCOCC4)cc3)CC2=O)cc1 (stereo not given) 3.54%
CCOC(=O)CSc1ncnc2c1c(-c1ccccc1)cn2-c1ccc(OC)cc1 -6.72%
CCS(=O)(=O)c1nc(S(=O)(=O)c2ccc(C)cc2)c(NCc2ccccc2Cl)s1 -12.6%
CCOC(=O)[C@H](CCc1ccccc1)N[C@@H](C)C(=O)N1Cc2ccccc2C[C@H]1C(=O)O -11.9%
CCOc1ccc(C(=O)c2cn(CC(=O)Nc3ccc(C)c(C)c3)c3ccc(OCC)cc3c2=O)cc1 -15.1%
CCOc1ccc(Nc2nc(Nc3ccc(OCC)cc3)nc(N3CCOCC3)n2)cc1 -14.9%
COc1ccc(CCNC(=O)CCCn2c(=O)c3cccn3c3ccc(F)cc32)cc1OC -10.9%
COc1ccc(OCC(=O)N2CCN(C(=O)c3ccc(OC)cc3)CC2)cc1 -3.65%
COc1cccc(NC(=O)c2oc3ccccc3c2NC(=O)Cc2cccc(C)c2)c1 -15.2%
COC(=O)c1ccc(Cl)cc1NC(=O)N1CCC(CN2CCC(C)CC2)CC1 -3.67%
CCc1cccc(NC(=O)c2coc(=O)c3ccccc23)c1 6.52%
Cc1cn2c(=O)cc(COC(=O)C(C)Oc3ccccc3)nc2s1 (stereo not given) -5.16%
Cc1ccc(C)c(CN2C(=O)C(O)(c3c[nH]c4ccccc34)c3ccccc32)c1 (stereo not given) -32.2%
O=C(COc1ccc(Br)cc1)Nc1cccc2cccnc12 -26.1%
COC(=O)CN1C(=O)C(C)(C)c2cc(S(=O)(=O)Nc3ccc(C(C)C)cc3)ccc21 -17.6%
Cc1ccccc1OCC(=O)N(Cc1ccc(C(C)C)cc1)C1CCS(=O)(=O)C1 (stereo not given) -18.7%
O=C(NCc1ccc(Cl)cc1)c1cc(-c2ccc(F)cc2)on1 -3.09%
CCc1ccc(-n2nc(CO)c(C(=O)NCCCCc3ccccc3)n2)cc1 1.2%
CCc1cccc(C)c1NS(=O)(=O)c1ccc(-n2cccn2)cc1 -12.3%
COc1ccc(-c2nn(-c3ccc(F)cc3F)c3c2cnc2ccc(F)cc23)cc1 -9.48%
CC(=O)N1CCCc2cc(S(=O)(=O)NCc3ccc(OC(C)C)cc3)ccc21 -14%
COc1ccc(C(=O)Nc2ccc(-c3cc(C(F)(F)F)nn3-c3ccccc3)cc2)cc1OC -27.2%
CC(NC(=O)c1cc2sccc2n1Cc1ccc(F)cc1)c1ccccc1 (stereo not given) -17.7%
CCOc1ccc(-c2nonc2NC(=O)c2oc3cc(Br)ccc3c2C)cc1 -27.7%
CCOc1ccc(C(=O)Nc2ccc3nc(SCC(=O)N4CCOCC4)sc3c2)cc1 3.98%
Cc1ccc(OCC(=O)Nc2ccc(-c3nc4ccc(C)cc4o3)cc2)cc1 -14.1%
CCN1CCN(C(=O)c2ccc3c(c2)N(Cc2cc(C)ccc2C)C(=O)c2ccccc2S3(=O)=O)CC1 -8.9%
Cc1cccc(C(=O)Nc2cccc(C(=O)OCc3cc(=O)n4nc(C5CC5)sc4n3)c2)c1 -8.27%
N#Cc1ccccc1NC(=O)C(=O)NCC(c1cccnc1)N1CCN(c2ccccc2)CC1 (stereo not given) -4.62%
Cc1cc(NC(=O)CN(c2cccc(C)c2C)S(=O)(=O)c2ccccc2)ccc1Br -15.8%
